According to the supplement of paper PMC12632987:
The full ranking holds about 4,500 sequences; the median of “median log2 fold change of GCK-ALFA target abundance (FLAG IP / Myc IP barcode read proportion)” is about 0.078, and the lowest 2% start at about -0.6. The list shows a part of the results.

B1: GBRAP_11_2655 (protein)
chain: KKEKLKEAAELAREAAEALEQLIEEGVDNEELQKKLREKIEKLLELAKKEADKADQHEVEVVVELWEEFLADPENKEKLAEELLAGLRVLEGNFELEADE
B2: GBRAP_52_6293 (protein)
chain: SEEEVEKLAEEIVELVKEGKLEEAIKLAKEFVKEHSLEEVLRLGELLIEKIEELTPEEAEKMLEVVEALAEKLEEEFNAEEEADYLEARAAAAAYKVFLK
B3: GBRAP_48_5820 (protein)
chain: PHMDKEKLKELVEETVEEMKELYEEMKAEGKSEEEILKVIKAELGDLALELEEAGYTKAADYLLDPENREKTAKTLLEFFKKGKYEEAKEYLLKKLEEAE
B4: GBRAP_52_6030 (protein)
chain: MEEKMEKLAQEIIDLVKEGKLEEAKKLAKEIVENLSEEELKMLGEKLAELTKEAPKEELDAYMEAAFIVADALEEAGYEEVFADDLLAKVAAAAVENLKK
B5: GBRAP_83_6997 (protein)
chain: AEKVTVAAAGDHILEAADIAIDLTKEEGKEVTIELIVRPEDIEKALEAVERLAKAGIETEILVVGLGLTEEEAERLKEEMEKIAKEHGVKIKVEVYLEEV
B6: GBRAP_74_6521 (protein)
chain: MEKLLEELKKAAEEGNAEEAVKLAKEIVKNGDLETIEEAAKIMVEFVDKHLDELSPEELEAVSDALAELADELMLRGGDSETVIAVANAAVRAEEKRAAL
B7: GBRAP_78_6653 (protein)
chain: EVEELVDKAMEHLDKAAKLTKQLDEESQNELLDLLVEAASHLLLSEEEGFDLKELEEALKYLEEALKYAKSLKTPTAEKIAEELEKAIEYLKKAIELLKK
B8: GBRAP_78_6678 (protein)
chain: EVEEHLDKALDHLNKAAKILNSMNTEEALDILGKVIDVAETVWEAHEGEADLEELKKALKEAKAALEEVKKIDTPEAKEAAKHLQAAIKELEAAIKLLEE
B9: GBRAP_128_3552 (protein)
chain: STEEAVAKAKELLEKMKTASPEEARELAEELAELLASASPEAREAIVKAILEELPELSVEHLEILADVFREKRPEADPDTANALAEIEVEALNEAEEKEE
B10: GBRAP_166_4975 (protein)
chain: AQAALVEALRARFDELAEKMKTADPEEKLELLAEAAEALAAARAAGLSPEDLRELIRYLIEKAKEVGIPLSAVEGALTILAELDEEEIDILDEAIAEVEA
B11: GBRAP_128_3291 (protein)
chain: SAAARYAEYRARLEAMLALSPEEFRAALLALALEAGAEGLEAVELFAEALEELAPRMTVEQLEAAAEALDEARAEVGPEAAAILADAANDLLLAAEEKEE
B12: GBRAP_95_7063 (protein)
chain: SETLEEAEILLDTAEDLVEAGLYERAAELAKLAYEELKEAGEKGENLLRLAKVLTKIAKATGNEEAAKLAEEALEEVKKAGGDEEEIEKLKKEIEKAKKK
B13: GBRAP_159_3958 (protein)
chain: MEELEKRVKEAKEKAKDNPEVVKLIEEVYDLIKEGEDAETIADFTVGSIVTLDVTPEEARLVLSVLPEETRRLAAEDLAYLAEELGREDLAAAARAILEE
B14: GBRAP_184_5280 (protein)
chain: TVRDVEIEAETAEEAIAAIRAAAAAARAEGAKLRLNILLRNASIEGILALFALLAELRAEGIIESAVLGIERELSEEEIDTVLAAADAAGVRVVLAIPDE
B15: GBRAP_52_6000 (protein)
chain: SMERLRKFAEELVEAAKAGDEERLEKLVKEVGKTFTPEEQLETLTLAIELAKTLGEEAVDVLARLAEAIEDAALEDALDPEVANEALTLALTAAIELEKK
B16: GBRAP_160_4740 (protein)
chain: KEELKKLKEEIEEIFEEGIELLKESEKEEALTIVRGIMGDVIMEVMSSEAASDELEDEIAEIADEAIEEVKANADAPIEKAIEIVEEAREKILELIEKEI
B17: GBRAP_80_6827 (protein)
chain: MEEKLEEVLKELEEIDEEIAKLVKEIVELARELGVPLERLLRFAEAILELAKKDKEKALKLVKETLEEVKEAKKRGNRDEVIAILADAESDALLEVEELE
B18: GBRAP_125_3025 (protein)
chain: SAEQLVADLERIAAALGFSADDVALLGEEARRHGLKGAFIALALAEGLEEAAELLEKLSEEEVAEVVREVAAWLAANPDATPEEVKAKLLEVLKKAVAKS
B19: GBRAP_160_4561 (protein)
chain: RERARELAARLRAAVEATLAETADDSVAEIATALDVTVGEEAMEAAEDPRYSDEMVDAILAAGDEIRAALAALADASVDEIRAAVLAIVDATEARILAIA
B20: GBRAP_83_6991 (protein)
chain: AEKITVVANGDDIEEAAEIVIDLTKEEGYDVDVEIIASKEDWEKVKKMVEKLAKAGIETEVLVLVKGVTEEEAKELQKELEEIAKKHGVNIKVEVVAIEP
B21: GBRAP_166_4972 (protein)
chain: SQEELVEKLKKYLDELAEKMKTADYEEKLELLAEAAEEIEKAKKEGLSDEDLKELIKYLIELAKEVGIPLSDVYGALTILANLDEEEIDILDEAIEEVEK
B22: GBRAP_52_5931 (protein)
chain: SSEEAKKIAQEILDAALAGDEEKLKALIEKLMKEKSDEEIIEVIEELARLTAERGPEYYDVFEHIADIILDVAEKEGKDVELIDYAIARGFGILYQAEQA
B23: GBRAP_52_6014 (protein)
chain: MRERLRAFVDEVLALVRAGKEEEARALIEELVASLNEEEIELLIDVLAERAAAARPEDQEAVWRLAEMLAEALEEAGVDEALADDLLARVAAALYAAEQA
B24: GBRAP_52_6012 (protein)
chain: MEEELEKQVEEALALVKAGRLEEARKLVRKLVKSLNEEEIELLIELLARRAREAAPEDHDAVWTLAEIVAEEMEREGKDEVLADLLLARVAAALHEAELA
B25: GBRAP_160_4661 (protein)
chain: SEELEELKEEIEELGEEALKFMEGESHEQRVAVVRTMVGNIVLLADENPLVSDEAEEKIDEIGEELVKTVEANPDLSDEELRKLIEEMVEKIKEIIDELA
B26: GBRAP_52_6001 (protein)
chain: REERLRKLAEEIVAAAKAGDEDKLRELVIEAARTLSEEELRETGRLTIELLKTLGAAGVDALAALADALNDAAVEEELKPDVLGELQKEALTAAVALEAE
B27: GBRAP_35_5592 (protein)
chain: EIKEIILETAKDFAEAAIDAVKNESIEEAIAMLKAFIRYAKLAIEDLKDDLEALKEIEKLIERVIKEVEKYRSDNPEIQKLLEELKKLAKEAKEQAKKVE
B28: GBRAP_125_3081 (protein)
chain: AVAEAVAYAGRILAAFGFSAAEVAEFKAASANSTVKAVFQALALAVLDEETALKSDKLTDEQALEVLKRVAEAIAANPDLTPEEVKALLKKEIDEALAKQ
B29: GBRAP_14_3853 (protein)
chain: MEELIKAVEETAEETKKLAKEVLPEHAEEIVKKIEELAEKIKKKIKEENLNKEEVAKLMDEMAEEIAKFIKEKGFANETEIAAIRAEILNESALKLEEIE

target: GABARAP, O95166; assay: median log2 fold change of GCK-ALFA target abundance (FLAG IP / Myc IP barcode read proportion) (log2 ratio); each designed protein is fused to an ALFA-tag nanobody in HEK293 cells to bring the named protein to FLAG-tagged glucokinase (GCK); Myc marks an untargeted standard; higher = target protein stabilised (more abundant); conditions: target protein: 3xFLAG-MCP-GCK-ALFA reporter; HEK293 landing pad (RPLP)
Sequence (O95166 whole entry, the tested form may be a part): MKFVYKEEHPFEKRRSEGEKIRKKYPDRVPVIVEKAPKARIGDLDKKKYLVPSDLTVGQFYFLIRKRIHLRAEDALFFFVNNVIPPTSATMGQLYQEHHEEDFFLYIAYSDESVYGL
Procedure, shortened: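 An ALFA-nanobody-fused binder library was recombined into HEK293 landing-pad cells and induced with 2 μg mL^−1 doxycycline. Cells were transfected with a plasmid expressing a FLAG-tagged target and a Myc-tagged standard. After 48 h, lysates underwent anti-FLAG and anti-Myc immunoprecipitation, and circular RNA barcodes were reverse transcribed, amplified and sequenced. Target abundance is the per-binder median log2 ratio of FLAG to Myc barcode read proportions. Barcodes needed ≥10^−7 proportion in both replicates, binders ≥3 barcodes per replicate, and a 10^−6 pseudocount was added; the two replicates were pooled.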

Binder	median log2 fold change
B1	0.192
B2	-0.318
B3	0.224
B4	-0.311
B5	-0.0374
B6	0.0619
B7	-0.163
B8	0.0214
B9	0.134
B10	0.0804
B11	0.14
B12	0.448
B13	0.0598
B14	-0.158
B15	0.00163
B16	0.102
B17	-0.293
B18	0.156
B19	0.146
B20	0.073
B21	0.209
B22	-0.0495
B23	-0.157
B24	0.0497
B25	0.148
B26	0.16
B27	0.188
B28	0.25
B29	0.393
